From PubChem BioAssay (NCATS)
This list was built around the results that the source calls inconclusive (neither active nor inactive); the mix of calls is not that of the screen. For part of these data: No potency is given beside an inconclusive call; the fits are too rough. Activity calls are given as the source filed them. Calls come from the whole dose curve; as a rule, active = well fitted curve in the direction sought with a large enough effect; inconclusive = small, poorly fitted or top-dose-only effect, or another doubt; inactive = no such curve, though single readings can be large; an effect the other way counts as inactive or inconclusive.

Test: Viability qHTS for spleen associated tyrosine kinase inhibitor (SYKi) drug resistant MV4-11 cells (AID 1963824); note: nearly all actives have a fitted effect of over 35% in size; note: potency is the fitted concentration of half-maximal effect
Conditions: SYKi-resistant MV4-11 viability, CellTiter-Glo, 72 h; series mostly up to 45 µM; viability, % of control: at the top concentration
Summary of the method: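 SYK inhibitor-resistant MV4-11 AML cells, 500 per well, added to predispensed compounds and incubated 72 hr at 37 C, 5% CO2. Viability measured by CellTiter-Glo luminescence after 10 min at room temperature.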
Tags give direction and shape of the fitted curve.

SMILES | Potency | viability, % of control
Cc1ccc([N+](=O)[O-])[c]2c1[O][Hg]2 | inconclusive [cytotoxic, full curve] | –
CNCC(O)c1ccc(O)cc1 (stereo unspecified) | inconclusive [cytotoxic, partial curve, poor fit] and inactive | –
O=c1[nH]c2cc(Cl)ccc2n1C1CCNCC1 | inconclusive [rising, full curve] | –
C[C@]12CC[C@H]3[C@@H](CC=C4C[C@@H](O)CC[C@@]43C)[C@@H]1CC[C@@H]2O | inconclusive [cytotoxic, partial curve, poor fit] | –
CC(NC(C)(C)C)C(=O)c1cccc(Cl)c1 (stereo unspecified) | inactive | –
O=C(O)c1nn(Cc2ccc(Cl)cc2Cl)c2ccccc12 | inactive | –
CC(C)=CCN1CC[C@@]2(C)c3cc(O)ccc3C[C@@H]1[C@@H]2C | inconclusive [cytotoxic, full curve, poor fit] | –
CC[N+]1(CCOC(=O)C(O)(c2ccccc2)c2ccccc2)CCCCC1 | – | inactive: 79.1%
CC[N+](CC)(CC)CC | – | inactive: 80.6%
CN(C)CCc1c[nH]c2cccc(O)c12 | inconclusive [cytotoxic, single point] | –

Test: Cellular viability qHTS for adrenocortical cancer (ACC) cell line SW-13 (AID 1963989);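 note: cells grown in serum-free medium with ITS supplement; % is set by controls: 0 for no effect and ±100 for the full control effect; nearly all actives have a fitted effect of over 65% in size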
Conditions: SW-13 ACC cells viability, CellTiter-Glo, 48 h; activity (max response): stronger effect = lower value
Summary of the method: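 Compound titrations (up to 46 uM final, in DMSO) were applied to SW-13 cells for 48 h at 37C/5% CO2. Reading used CellTiter-Glo after 20 min at room temperature; fitted curves yielded IC50 and efficacy.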

SMILES | activity (max response)
CN1CCC(O)(c2ccc(F)cc2)C(C(=O)c2ccc(F)cc2)C1 (stereo unspecified) | inactive: 0.424%
COc1cc(C[C@@H](C)N)c(OC)cc1C | inactive: -18.7%
CC[N+]1(CCOC(=O)C(O)(c2ccccc2)c2ccccc2)CCCCC1 | inactive: 4.14%

Test: Cellular viability qHTS for adrenocortical cancer (ACC) cell line NCI-H295R (AID 1963990); note: nearly all actives have a fitted effect of over 60% in size; note: potency is the fitted concentration of half-maximal effect;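 for activity change, negative = viability loss: 0% = DMSO only wells and -100% = full killing with cytotoxic reference compound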
Conditions: CellTiter-Glo ATP luminescence, 48 h; activity change, negative = viability loss: at 46.1 µM (top of the series)
Summary of the method: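 Readout: CellTiter-Glo luminescence, 20 min RT. Exposure: 48 h, 37C/5% CO2. Cells: NCI-H295R, ITS-DMEM serum-free. Range: up to 46 uM. Analysis: 4PL fit, IC50 plus efficacy.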

SMILES | Potency | activity change, negative = viability loss
Cc1ccc([N+](=O)[O-])[c]2c1[O][Hg]2 | inconclusive [cytotoxic, full curve, poor fit] | –
C[C@]12CC[C@H]3[C@@H](CC=C4C[C@@H](O)CC[C@@]43C)[C@@H]1CC[C@@H]2O | inconclusive [cytotoxic, single point] | –
O=C(O)c1nn(Cc2ccc(Cl)cc2Cl)c2ccccc12 | inconclusive [cytotoxic, partial curve, poor fit] | –
CC(C)=CCN1CC[C@@]2(C)c3cc(O)ccc3C[C@@H]1[C@@H]2C | active: 31.6 µM | –
CC[N+]1(CCOC(=O)C(O)(c2ccccc2)c2ccccc2)CCCCC1 | – | inactive: 8.75%
CCC1(c2ccccc2)CCC(=O)NC1=O (stereo unspecified) | – | inactive: -0.352%
NCCc1cc(O)c(O)cc1O | – | inactive: -8.94%
CN(C)CCc1c[nH]c2cccc(O)c12 | – | inactive: -18.9% [at 92.7 µM]
